Measurements taken from PubChem BioAssay AID1240 (Sanford-Burnham Center for Chemical Genomics, 2008).
Among all 50,000 compounds or so, about 800 (1.6%) showed an effect of 50% or more. Some of the results follow.

Target: Bcl-2-like protein 10 (Homo sapiens) (UniProt Q9HD36)
Experiment: Phenotype converters, Bcl-B/TR3 peptide binding displacement, primary biochemical FP (AID 1240);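 further: 0% = Bcl-B with tracer peptide and DMSO and 100% = tracer peptide lacking Bcl-B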
Conditions: GST-Bcl-B / FITC-TR3 peptide fluorescence polarization; stronger effect = higher value; compound at 3.75 mg/L

UniProt Q9HD36, sequence (Q9HD36 whole entry, looked up): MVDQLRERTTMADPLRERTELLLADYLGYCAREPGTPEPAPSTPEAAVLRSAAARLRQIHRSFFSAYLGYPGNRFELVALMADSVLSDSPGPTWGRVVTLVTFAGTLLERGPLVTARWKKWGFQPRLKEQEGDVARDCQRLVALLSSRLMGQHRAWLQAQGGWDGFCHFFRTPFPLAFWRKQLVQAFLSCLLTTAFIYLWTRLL

| SMILES | displacement [%] |
| --- | --- |
| COC(=O)C1=C(C)NC(=S)NC1c1ccc(OCC(=O)N2CCOCC2)c(OC)c1 (stereo not given) | 36.8 |
| Cc1cc(C)cc(N2C(=O)NC(=O)/C(=C\c3ccc(O)c(Br)c3)C2=O)c1 | 12.3 |
| Cc1ccnc(NS(=O)(=O)c2ccc(F)cc2)c1 | 0.4 |
| CCN(CC)c1ccc(NC(=O)c2cccc(Cl)c2Cl)cc1 | 10.7 |
| COc1ccc(/C(N)=N/OC(=O)c2cccc([N+](=O)[O-])c2C)cc1OC | 11.4 |
| N#CC1CC(c2ccccc2)=NN1c1ccccc1 (stereo not given) | 11.4 |
| Cc1nc2ccc(Cl)cc2c(-c2ccccc2)c1C(=O)O | -1.4 |
| N#Cc1c(N)nc2c(c1-c1ccc(Br)s1)CCCCCC2 | -2.3 |
| CC(=O)CCc1oc2ccccc2c1-c1ccccc1 | -1.1 |
| O=C(Cc1ccccc1)Nc1ccc(-c2ccccc2)cc1[N+](=O)[O-] | -5.9 |
| Nc1nonc1-c1nc2ccccc2n1Cc1ccc(Cl)cc1 | -3.4 |
| O=[N+]([O-])c1ccc(-c2cn3c(n2)sc2ccccc23)cc1 | 7.6 |
| Fc1ccc(-c2noc(-c3ccc(Cl)cc3)n2)cc1 | -6.4 |
| CC(=O)C1=C(O)C(=O)N(CCN(C)C)C1c1cccc([N+](=O)[O-])c1 (stereo not given) | -3.5 |
| CCC(Oc1ccccc1)C(=O)Nc1ccncc1 (stereo not given) | -10.7 |
| COc1ccc(N(CC(=O)Nc2ccc(Oc3ccccc3)cc2)S(C)(=O)=O)c(OC)c1 | 10.4 |
| COc1ccc(N(C(=O)Nc2ccccc2[N+](=O)[O-])C(C)C2CC2)cc1 (stereo not given) | 5.9 |
| CN1CCN(C(=O)CCCN2C(=O)/C(=C/c3cccs3)SC2=S)CC1 | 2.9 |
| CC1=C(C(N)=O)C(C2CCCCC2)C(C#N)=C(N)O1 (stereo not given) | -11.7 |
| COCCCN1C(=O)c2cccc3cccc(c23)C1=O | -5.5 |
| O=C(O)c1ccc(CNC(=O)C2CCCCC2C(=O)O)cc1 (stereo not given) | -5.1 |
| COc1ccccc1/C=C1/SC(=O)N(CNc2cccc(Cl)c2)C1=O | 9.1 |
| COc1ccccc1CNC(=O)c1ccc(Cl)c(Cl)c1 | 18.3 |
| CC1CN(C(=O)c2cccs2)CC(C)O1 (stereo not given) | 3.3 |

| SMILES | displacement [%] |
| --- | --- |
| CC1=C(C)CC(C(=O)c2ccc(Br)cc2)C(C(=O)O)C1 (stereo not given) | -3 |
| O=C1CC(Nc2ccc(F)cc2)C(=O)N1c1ccc(N2CCOCC2)cc1 (stereo not given) | 11.7 |
| Cc1ccc2oc(C(F)F)cc(=O)c2c1 | 16.8 |
| NC(=O)c1c(NC(=O)c2cc3cc(Br)ccc3oc2=O)sc2c1CCCC2 | -11.9 |
| CC(C(=O)O)N1C(=O)/C(=C/c2ccccc2)SC1=S (stereo not given) | 2.6 |
| c1coc(CNc2ncnc3c2oc2ccccc23)c1 | 4 |
| Cc1ccc(C)c(NC(=O)CN(c2ccc(F)cc2)S(=O)(=O)c2ccccc2)c1 | -1.7 |
| CC(=O)c1cccc(NC(=O)COc2cc(C)ccc2C(C)(C)C)c1 | -10.4 |
| C=CCn1c2ccccc2n2c(C(=O)OCC)c(C)nc12 | -6.3 |
| CCN(CC)c1ccc(/C=C2/SC(=S)N(Cc3ccccc3)C2=O)c(O)c1 | -98.2 |
| CC(=O)Nc1ccc(NS(=O)(=O)c2cccc3c2C(=O)c2ccccc2C3=O)cc1 | -4.4 |
| Clc1ccc(-c2ccc(/C=C\c3nc4ccccc4o3)o2)cc1 | 95.3 |
| Oc1c(/C=C2\C=Nc3ccccc32)sc(=S)n1-c1ccc(Cl)cc1 | 6.2 |
| COC(=O)C1C(O)=C(C=NCc2ccccc2)C(=O)CC1(C)C (stereo not given) | 3.2 |
| COC(=O)c1ccc(NC(=O)C2CC(=O)N(c3ccc(C)cc3)C2)cc1 (stereo not given) | 0.3 |
| COc1ccc(OC)c(NC(=O)COc2ccccc2C)c1 | 17.1 |
| CCOc1cccc(N2C(=O)CC(N3CCC(C(N)=O)(N4CCCCC4)CC3)C2=O)c1 (stereo not given) | -3.8 |
| O=c1c2ccccc2nc(/C=C/c2cccc(Br)c2)n1Cc1ccccc1 | 12.3 |
| COc1cc([N+](=O)[O-])ccc1-c1ccc(/C=C2\C(=O)NC(=O)N(c3ccc(Cl)cc3)C2=O)o1 | 14 |
| Cc1ccc([N+](=O)[O-])cc1NC(=O)CC1Sc2ccccc2NC1=O (stereo not given) | 3.4 |
| O=C(COc1ccccc1[N+](=O)[O-])Nc1ccc2oc(-c3cccc(Br)c3)nc2c1 | 18.3 |
| CCCCNCCCCOc1cc(C)c(Cl)c(C)c1 | 14.5 |
| O=C1Nc2ccccc2/C1=N/N=C/c1cccc(Oc2ccccc2)c1 | 0 |
| Cc1cccc(N=Cc2ccc(OC3CSC3)cc2)c1 | -5 |

| SMILES | displacement [%] |
| --- | --- |
| COC(=O)c1ccccc1NC(=O)CN(c1cccc([N+](=O)[O-])c1)S(=O)(=O)c1ccccc1 | -11.4 |
| O=C(N/C(=C/c1ccc(Br)cc1)C(=O)N1CCOCC1)c1ccccc1 | -1.3 |
| CCN1C(=O)/C(=C\c2ccc(OS(=O)(=O)c3ccccc3[N+](=O)[O-])c(OC)c2)SC1=S | 11.4 |
| CC1=CC(C)(C)N(C(=O)CN2C(=O)C3CCCCC3C2=O)c2cc(C)ccc21 (stereo not given) | 10 |
| CC(=O)Nc1ccccc1NC(=O)Cc1cccs1 | 5.3 |
| CC(C)(C)NC(=O)c1cccc(Oc2ccc([N+](=O)[O-])cc2)c1 | -2.1 |
| O=C1CC(c2ccc(Cl)cc2)CC2=C1C(c1cc3c(cc1Br)OCO3)Nc1ccccc1N2 (stereo not given) | -6.5 |
| COc1cc(C(=O)N2CCN(Cc3ccccc3)CC2)c([N+](=O)[O-])cc1OC | 3.6 |
| CCCCP(=O)(CCCC)CP(=O)(CCCC)CCCC | -3.6 |
| N/C(=N\N=C\c1c(O)ccc2ccccc12)c1nonc1N | 11.1 |
| OCc1nc2ccccc2n1Cc1ccc2ccccc2c1 | -13.5 |
| Cc1ccnc(NC(=S)NC(=O)c2ccco2)c1 | 7.3 |
| Cc1c(NC(=S)NC(NC(=O)c2ccccc2Cl)C(Cl)(Cl)Cl)c(=O)n(-c2ccccc2)n1C (stereo not given) | 8.9 |
| FC(F)(F)C(Oc1nc(Nc2ccc(Cl)cc2)nc(N2CCOCC2)n1)C(F)(F)F | 2.3 |
| CCCCNC(=O)c1c(NC(=O)c2ccccc2)sc(C)c1C | 8.5 |
| O=C(O)Cn1c(O)c(C2=c3ccccc3=NC2=O)sc1=S | 0.7 |
| O=Cc1cn[nH]c1-c1ccc(Cl)cc1 | -9.1 |
| COCCCNC(=O)c1ccc(CN(c2ccccc2)S(C)(=O)=O)cc1 | 13.6 |
| COc1ccc(/C=C/C(=O)NC(=S)NCc2ccccc2)cc1OC | -3.1 |
| CC1(C)CC(n2c(=O)c3c(n4cnnc24)-c2ccccc2CC32CCCCC2)CCO1 (stereo not given) | -8 |
| O=C1CN2C(=Nc3ccc(Br)cc3C2c2ccccc2)CCN1 (stereo not given) | -3.9 |
| CC(C)(C)c1ccc(-c2nnc(-c3ccc(Br)o3)o2)cc1 | 2.4 |
